Reference: publication PMC4336329 (PLoS ONE, 2015)
Hit rate of the full screen: of about 310,000 compounds, about 2,200 (0.71%) showed an effect of 50% or more. The effect is printed as a negative number. This is one part of the list.

Each compound was assayed against human ether-à-go-go-related gene (hERG) potassium channel (human, UniProt Q12809) (assay: primary screen, population patch clamp on CHO cells stably expressing hERG).
Chain of human ether-à-go-go-related gene (hERG) potassium channel (Q12809 whole entry, looked up): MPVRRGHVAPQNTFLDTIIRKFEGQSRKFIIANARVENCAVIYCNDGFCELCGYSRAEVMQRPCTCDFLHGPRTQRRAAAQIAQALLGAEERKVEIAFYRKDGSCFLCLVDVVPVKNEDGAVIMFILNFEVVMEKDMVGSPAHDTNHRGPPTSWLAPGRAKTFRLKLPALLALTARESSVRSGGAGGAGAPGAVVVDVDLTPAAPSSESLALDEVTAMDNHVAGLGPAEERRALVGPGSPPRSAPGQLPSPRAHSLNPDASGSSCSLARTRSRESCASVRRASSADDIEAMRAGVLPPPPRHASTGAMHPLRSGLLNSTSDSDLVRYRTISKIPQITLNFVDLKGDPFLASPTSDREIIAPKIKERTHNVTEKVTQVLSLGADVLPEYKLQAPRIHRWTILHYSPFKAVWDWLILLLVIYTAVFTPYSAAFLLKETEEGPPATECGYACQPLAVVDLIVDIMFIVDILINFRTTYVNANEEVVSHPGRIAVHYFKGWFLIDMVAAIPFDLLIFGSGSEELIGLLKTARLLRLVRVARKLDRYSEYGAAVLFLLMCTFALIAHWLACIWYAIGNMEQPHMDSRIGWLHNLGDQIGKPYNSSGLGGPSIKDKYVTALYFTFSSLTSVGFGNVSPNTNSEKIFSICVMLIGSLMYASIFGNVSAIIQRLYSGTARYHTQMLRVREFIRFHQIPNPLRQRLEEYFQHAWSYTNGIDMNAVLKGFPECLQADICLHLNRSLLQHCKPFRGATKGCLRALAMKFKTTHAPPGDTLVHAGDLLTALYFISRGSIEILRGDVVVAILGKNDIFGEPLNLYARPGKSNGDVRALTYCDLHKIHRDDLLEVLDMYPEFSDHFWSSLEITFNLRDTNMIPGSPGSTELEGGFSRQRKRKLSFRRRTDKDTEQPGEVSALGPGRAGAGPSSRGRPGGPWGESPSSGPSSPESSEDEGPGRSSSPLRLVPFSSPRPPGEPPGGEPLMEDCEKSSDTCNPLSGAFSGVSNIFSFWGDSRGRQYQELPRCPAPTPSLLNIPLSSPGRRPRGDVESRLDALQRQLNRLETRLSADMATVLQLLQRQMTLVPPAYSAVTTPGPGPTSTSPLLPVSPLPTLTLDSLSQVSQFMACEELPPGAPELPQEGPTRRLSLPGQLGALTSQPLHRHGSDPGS

Row | SMILES | hERG current change (%, negative = inhibition) at 1uM [%]
1 | O=C(OCC(=O)N1CCOCC1)c1ccc(Cl)cc1[N+](=O)[O-] | 11.8
2 | CCC(C)n1c(NC(=O)c2ccccc2)c(C#N)c2nc3ccccc3nc21 (stereo not drawn) | 16.6
3 | COn1c(-c2ccc(Cl)cc2)nc2ccc(Cl)cc21 | 0.437
4 | COc1cc(OC)c(C(=O)O/N=C(\N)c2cccc(C)c2)cc1OC | 13.8
5 | CC(C)(C)C(=O)Nc1ccc(Sc2ccc([N+](=O)[O-])cc2)cc1 | 5.23
6 | O=C(NCCCCNC(=O)c1ccccc1Br)c1ccccc1Br | 11.1
7 | Cc1ccc(C(c2nnnn2Cc2cccs2)N2CCN(Cc3ccc4c(c3)OCO4)CC2)cc1 (stereo not drawn) | -1.16
8 | CC(C)NC(=O)NC(=O)COC(=O)c1ccc(OC(F)(F)F)cc1 | 13
9 | Cc1ccc(C(=O)N(CC(=O)NC2CCCC2)c2ccccc2Cl)s1 | 0.85
10 | CCCCCCCC(=O)Nc1cc(C(=O)NCc2ccc(C)cc2)ccc1N1CCC2(CC1)CC(c1ccccc1)=NO2 | 18.3
11 | CN(C)c1ccc(NC(=O)CSc2nnc(-c3cnccn3)n2C)cc1 | 18.3
12 | C/C(=N\NC(=O)c1nnn(-c2nonc2N)c1-c1ccccc1)c1ccccc1O | 8.96
13 | O=C(Nc1cc(C(F)(F)F)ccc1Cl)C(=O)N1CCCCC1 | 0.682
14 | CCOc1ccc(N2C(=O)NC(=O)/C(=C/c3cnc(SC)nc3)C2=O)cc1 | 22.3
15 | Cc1ccc(Cn2ncn3c(cc4ccccc43)c2=O)cc1 | 15.5
16 | CCn1c(=S)sc2c(=O)n(CC(=O)Nc3ccccc3)c(C)nc21 | 11
17 | COCCCn1c(C)c(C(C)=O)cc(NC(=O)c2ccccc2)c1=O | 14.9
18 | COc1ccc(C=O)cc1OC(=O)C1(C)Cc2ccccc2C(=O)O1 (stereo not drawn) | 10.5
19 | COc1cc(-c2nnc(SCC(=O)Nc3cc(C)on3)n2C)cc(OC)c1O | 0.799
20 | O=C(N/N=C/c1c(O)n(CCC2=CCCCC2)c(=O)[nH]c1=O)c1ccccc1 | 18.9
21 | COc1cc(O)c(C(CCN2CCCC(C)C2)c2ccc3c(c2)OCO3)c(OC)c1 (stereo not drawn) | -84.1
22 | C#C[C@]1(O)CC[C@H]2[C@@H]3CCc4cc(O)ccc4[C@H]3CC[C@@]21C | 18
23 | CCO[C@H]1OC(C(N)=O)=C[C@@H](C2CC2)[C@@H]1CCCO | 14.3

Row | SMILES | hERG current change (%, negative = inhibition) at 1uM [%]
24 | Cc1ccc2c(CN3CC(C)CC(C)C3)cc(=O)oc2c1 (stereo not drawn) | 8.17
25 | Cc1nc2nc(-c3ccccc3)nn2c(C)c1Cl | 6.4
26 | COc1ccc(N2CC(C(=O)Nc3nccs3)CC2=O)cc1 (stereo not drawn) | 13.7
27 | CC(C)[C@H](N)C(=O)NCC1CCC(C(=O)N[C@@H](Cc2ccccc2)C(=O)O)CC1.Cl (stereo partly drawn) | 10.8
28 | CCc1cc2c(=O)c(-c3nc(C)cs3)coc2cc1O | 11
29 | C=CCSc1nnc(NC(=O)CSc2ccccn2)s1 | 2.33
30 | Cc1cc(C(=O)OC(C(=O)Nc2cccc(C(F)(F)F)c2)c2ccccc2)c(C)o1 (stereo not drawn) | 10.7
31 | CC(NC(=O)c1ccccc1F)c1cccc2ccccc12 (stereo not drawn) | 12.5
32 | COc1ccc(-c2cn3cccnc3n2)cc1F | 14
33 | N#Cc1ccc(CSc2nnc(COc3ccccc3)n2-c2ccccc2)cc1 | -2.87
34 | CCCCSc1nnc(-c2ccccc2N)c(=O)[nH]1 | 7.89
35 | O=C(NC(=S)Nc1ccccc1Br)C1CCC1 | -4.42
36 | N=C1c2ccccc2CN1NC(=O)c1ccccc1 | 11.3
37 | COc1ccc(CCNC(=O)c2noc(C)c2[N+](=O)[O-])cc1OC | 11.5
38 | COc1ccc(NC(=O)CN(c2ccccc2F)S(=O)(=O)c2ccc(C)cc2)cc1 | 16.1
39 | COc1ccc(Cn2c(-c3ccccc3C)nc3c(c(=O)c4ccccc4n3C)c2=O)cc1 | 9.74
40 | CC(C)=CCN1CCN(Cc2ccc(C#CC(C)(C)O)cc2)CC1CCO (stereo not drawn) | 12.7
41 | O=S(=O)(Nc1cccc(-c2cn3c(n2)SCC3)c1)c1cccs1 | -8.99
42 | CSc1nc(-c2ccc(F)cc2)cc(=O)[nH]1 | 7.35
43 | COC(=O)C1SCC2C(=O)N(Cc3cccc(C)c3)CC(=O)N21 (stereo not drawn) | 10.5
44 | COc1ccc(-n2nc(C(=O)NCC(=O)Nc3ccccn3)c3ccccc3c2=O)cc1 | 12.1
45 | CC(=O)c1ccc(NC(=S)N2CCN(C(=S)Nc3ccc(C(C)=O)cc3)C(C)C2)cc1 (stereo not drawn) | 5.52
46 | CC(=O)OCCc1c2ccccc2c(CCCN(C)C)c2ccccc12 | 12.4

Row | SMILES | hERG current change (%, negative = inhibition) at 1uM [%]
47 | O=C(NNC(=O)C1CCN(Cc2cccc(F)c2)CC1)c1cccs1 | 13.3
48 | Cc1cc(C)nc(NC(=O)CCC2CCCC2)c1 | 6.2
49 | O=C(CN1C(=O)c2ccccc2S1(=O)=O)N1CCN(c2ccccc2)CC1 | 9.73
50 | CC1CCN(c2ccc(NC(=O)c3cccnc3Cl)cc2)CC1 | 13.1
51 | CCOc1ccc(C(C)=O)cc1CN1C(=O)C(=O)N(CC)C1=O | 11.8
52 | O=C(CNS(=O)(=O)Cc1ccccc1)NCc1ccccc1 | 10.4
53 | CCOC(=O)C1CCN(C(=O)CCCOc2ccccc2)CC1 | 9.98
54 | CCN1CCN(CCCNC(=O)CCC(=O)N2CCOc3ccccc32)CC1 | -4.42
55 | Cc1ccc(C(=O)CSc2n[nH]c(-c3ccco3)n2)cc1C | 11.6
56 | CCOc1ccc(CCNC(=O)Cn2c(=O)oc3ccccc32)cc1OCC | -1.8
57 | Fc1ccccc1NC(=S)Nn1cnnc1 | 14.3
58 | Clc1ccc(-c2nc3ccccn3c2CN2CCOCC2)cc1 | 4.44
59 | CCCN(c1ccc(C(C)C)cc1)S(=O)(=O)c1c(C)[nH]c(=O)[nH]c1=O | -4.42
60 | O=C(CC1C(=O)NCCN1Cc1ccc(F)cc1Cl)NC1CCCCCCC1 (stereo not drawn) | 1.63
61 | COc1ccccc1Oc1ccc(N/C=C/C(=O)c2ccc(C)o2)cc1 | 10.6
62 | O=C(Nc1nc2cc3c(cc2s1)OCO3)C1CCCCC1 | 11.3
63 | CCO[C@@H]1OC(C(=O)NCc2nc3ccccc3[nH]2)=C[C@H](c2cn(C(C)=O)c3ccccc23)[C@H]1CCCO | 7.13
64 | CC(C(=O)OCC(=O)c1ccc(F)cc1)N1C(=O)C2C3C=CC(C3)C2C1=O (stereo not drawn) | 6.84
65 | CCc1ccc(OCCCN=C(C)c2c(O)n(C)c(=O)n(C)c2=O)cc1 | -6.69
66 | COc1ccc(N(CC(=O)Nc2cccc(N(C)S(C)(=O)=O)c2)S(C)(=O)=O)cc1OC | 11.5
67 | CCOC(=O)C1CCN(C(=O)CN(c2ccc(Cl)c(C(F)(F)F)c2)S(C)(=O)=O)CC1 | -2.83
68 | CCOc1ccccc1NC(=O)CN1CCC(NC(=O)c2ccccc2C)CC1 | -19
69 | CN(C)CCCN(C(=O)COc1ccccc1)c1nc2c(F)cccc2s1.Cl | -55.8

Row | SMILES | hERG current change (%, negative = inhibition) at 1uM [%]
70 | Oc1ccc(-c2csc(Nc3ccccn3)n2)cc1O | 10.9
71 | CN(C(=O)c1cc2sccc2n1C)C1CCCCC1 | 3.38
72 | N#Cc1cc2ccc(N3CCOCC3)cc2cc1C#N | 1.41
73 | COc1ccc(CCNC(=O)C2CCCN(S(=O)(=O)c3cc(C)ccc3OC)C2)cc1OC (stereo not drawn) | 4.69
74 | CC(=O)Nc1ccc(NC(=O)CSc2nnc(-c3ccco3)o2)cc1 | 12.9
75 | CCOC(=O)c1ccccc1NS(=O)(=O)c1ccc(OC)cc1 | 6.33
76 | O=C(NCC1CCCO1)c1cc(-c2ccccc2)nc2ccc(Br)cc12 (stereo not drawn) | 4.16
77 | Cc1cc(C)n(-c2ccc(C(=O)OCn3nnc4ccccc4c3=O)cc2)n1 | 6.23
78 | O=C(/C=C/Nc1ccc(Br)cc1F)c1ccccc1 | -1.69
79 | CCCCCCCCOC(=O)C(NC(=O)CCC(=O)Nc1ccc(S(N)(=O)=O)cc1)C(O)c1ccccc1 (stereo not drawn) | 16.8
80 | Cc1ccccc1NC(=O)NCC1CCCO1 (stereo not drawn) | 17.4
81 | Cc1ccc(S(=O)(=O)N2CCCCC2)cc1NC(=O)c1ccc2ccccc2n1 | 21.9
82 | N=C1C(c2nc(-c3ccc(Cl)cc3)cs2)=C(O)CN1NC(=O)c1ccc(O)cc1 | 7.9
83 | Cc1nc2ccc(NC(=O)Cc3cccc(F)c3)cc2s1 | 7.15
84 | CCCOc1ccc(NC(=O)C2CC(=O)N(C(C)C)C2)cc1 (stereo not drawn) | 9.23
85 | Nn1c(SCc2ccccc2F)nnc1-c1ccncc1 | 9.1
86 | COc1ccc(C(C)NC(=O)c2ccc(Cl)cc2)cc1OC (stereo not drawn) | 10.6
87 | COc1ccc(N2CCN(S(=O)(=O)CCNC(=O)COc3ccccc3)CC2)cc1 | 3.77
88 | CC(C)(CO)NC(=O)C(c1ccccc1)c1ccccc1 | 12.8
89 | CCOc1ccc(-c2nnc(-c3ccccc3)o2)cc1 | 12.9
90 | Cc1cccc2cc(CN(CCN3CCOCC3)C(=O)Nc3ccccc3F)c(=O)[nH]c12 | 13.9
